What all share (test): cell-based or functional assay
Experiment [1] deals with T1, human VEGF-A (human, UniProt P15692-4 27-191).
T1 sequence (looked up): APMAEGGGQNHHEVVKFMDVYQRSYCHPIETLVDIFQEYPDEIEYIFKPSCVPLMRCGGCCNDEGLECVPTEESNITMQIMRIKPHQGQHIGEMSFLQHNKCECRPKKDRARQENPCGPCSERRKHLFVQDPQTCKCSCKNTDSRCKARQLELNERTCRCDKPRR

For experiment [2], the target named is T2, human TrkB receptor (human, UniProt Q16620 32-822).
Experiment [3] addresses T1, human VEGF-A. The source holds these as a separate data set.
Experiment [4] addresses T1, human VEGF-A. The source holds these as a separate data set.
Experiment [5] addresses T1, human VEGF-A. This is another data set of the same source.
In experiment [6] the target is T1, human VEGF-A. The source holds these as a separate data set.
The target of experiment [7] is T1, human VEGF-A. This is another data set of the same source.
The target in experiment [8] is T1, human VEGF-A. This is another data set of the same source.
Experiment [9] addresses T2, human TrkB receptor. This is another data set of the same source.
The target of experiment [10] is T2, human TrkB receptor. This is another data set of the same source.

Numbering of substitutions follows the chain as printed. Read-outs that look alike come from different tables or passages of the source.

T2 sequence (Q16620 32-822): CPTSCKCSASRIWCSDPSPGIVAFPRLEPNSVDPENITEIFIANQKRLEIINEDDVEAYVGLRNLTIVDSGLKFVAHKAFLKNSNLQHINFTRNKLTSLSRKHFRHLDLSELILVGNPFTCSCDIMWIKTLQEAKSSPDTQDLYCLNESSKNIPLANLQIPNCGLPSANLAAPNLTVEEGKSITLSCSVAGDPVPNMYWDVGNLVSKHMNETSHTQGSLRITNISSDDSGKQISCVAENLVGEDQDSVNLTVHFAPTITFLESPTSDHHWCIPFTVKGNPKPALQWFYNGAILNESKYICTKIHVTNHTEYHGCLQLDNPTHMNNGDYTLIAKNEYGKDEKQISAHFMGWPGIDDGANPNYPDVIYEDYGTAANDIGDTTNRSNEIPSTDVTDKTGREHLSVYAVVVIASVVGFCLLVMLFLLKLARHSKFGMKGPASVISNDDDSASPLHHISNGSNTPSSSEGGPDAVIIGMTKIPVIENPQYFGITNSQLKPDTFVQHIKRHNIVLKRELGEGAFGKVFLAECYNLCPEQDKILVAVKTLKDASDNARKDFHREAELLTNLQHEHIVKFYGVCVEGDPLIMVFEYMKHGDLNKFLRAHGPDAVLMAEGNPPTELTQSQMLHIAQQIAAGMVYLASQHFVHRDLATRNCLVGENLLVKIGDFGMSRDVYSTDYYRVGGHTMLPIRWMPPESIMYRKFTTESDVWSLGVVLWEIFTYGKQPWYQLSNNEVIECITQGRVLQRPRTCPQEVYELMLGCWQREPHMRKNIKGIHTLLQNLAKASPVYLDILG

B1: TPP-14940 (bispecific antibody, human IgG1, kappa)
heavy: EVQLVESGGGLVQPGGSLRLSCAASGYDFTHYGMNWVRQAPGKGLEWVGWINTYTGEPTYAADFKRRFTFSLDTSKSTAYLQMNSLRAEDTAVYYCAKYPYYYGTSHWYFDVWGQGTLVTVSSASTKGPSVFPLAPSSKSTSGGTAALGCLVKDYFPEPVTVSWNSGALTSGVHTFPAVLQSSGLYSLSSVVTVPSSSLGTQTYICNVNHKPSNTKVDKRV[in this place human IgG1 Fc with changes]GGSEGKSSGSGSESKSTGGSQVQLVQSGAEVKKPGASVKVSCKASGYTFTNYDIIWVRQAPGQGLEWMGYINPYNDGTKYNEKFKGRVTMTRDTSTSTVYMELSSLRSEDTAVYYCARLLKYRRFRYYAIDYWGQGTTVTVSSGGSEGKSSGSGSESKSTGGSDIQMTQSPSSLSASVGDRVTITCRTSENVYSNLAWYQQKPGKAPKLLIYAASNLQSGVPSRFSGSGSGTDYTFTISSLQPEDIATYYCQHFWGSPFTFGQGTKLEIK
light: DIQLTQSPSSLSASVGDRVTITCSASQDISNYLNWYQQKPGKAPKVLIYFTSSLHSGVPSRFSGSGSGTDFTLTISSLQPEDFATYYCQQYSTVPWTFGQGTKVEIKRTVAAPSVFIFPPSDEQLKSGTASVVCLLNNFYPREAKVQWKVDNALQSGNSQESVTEQDSKDSTYSLSSTLTLSKADYEKHKVYACEVTHQGLSSPVTKSFNRGEC
B1: in the experiment with human VEGF-A [1], the “concentration for full inhibition of VEGF-induced HRMEC proliferation” value (from here on “concentration for full inhibition”) amounted to 0.25 nM and the “fold IC50 against Ranibizumab scFv molecules or TPP-11736” value turned out to be 10 fold. Moreover, in the experiment with human TrkB receptor [2], the “EC50 (pERK)” value is 0.475 nM and the “EC50 (pTrkB)” value is 3.21 nM. In the experiment with human VEGF-A [3], the “Bottom plateau (ERK1/2 phosphorylation, counts)” value amounted to 438 counts; the “Bottom plateau (Src phosphorylation, counts)” value came out at 4770 counts; the “IC50 (ERK1/2 phosphorylation)” value was 0.802 nM; the “IC50 (Src phosphorylation)” value is 0.276 nM. In the experiment with human VEGF-A [4], the “Bottom plateau (ERK1/2 phosphorylation, counts)” value came out at 438 counts; the “Bottom plateau (Src phosphorylation, counts)” value amounted to 4770 counts; the “IC50 (ERK1/2 phosphorylation)” value was 0.802 nM; the “IC50 (Src phosphorylation)” value was determined as 0.276 nM.

B2: TPP-22214 (bispecific antibody, human IgG1, kappa)
heavy: QVQLVESGGGLVQPGGSLRLSCAASGYDFTHYGMNWVRQAPGKGLEWVGWINTYTGEPTYAADFKRRFTFSLDTSKSTAYLQMNSLRAEDTAVYYCAKYPYYYGTSHWYFDVWGQGTLVTVSSASTKGPSVFPLAPSSKSTSGGTAALGCLVKDYFPEPVTVSWNSGALTSGVHTFPAVLQSSGLYSLSSVVTVPSSSLGTQTYICNVNHKPSNTKVDKRV[in this place human IgG1 Fc with changes]GGGGSGGGGSDIQMTQSPSSLSASVGDRVTITCRTSENVYSNLAWYQQKPGKAPKLLIYAASNLQSGVPSRFSGSGSGTDYTFTISSLQPEDIATYYCQHFWGSPFTFGCGTKLEIKGGSEGKSSGSGSESKSTGGSQVQLVQSGAEVKKPGASVKVSCKASGYTFTNYDIIWVRQAPGQCLEWMGYINPYNDGTKYNEKFKGRVTMTRDTSTSTVYMELSSLRSEDTAVYYCARLLKYRRFRYYAIDYWGQGTTVTVSS
light: B1 light with D70G
On to B2, for which, in the experiment with human VEGF-A [5], the “HRMEC proliferation: IC50 (pM)” value turned out to be 88.7 pM and the “HRMEC proliferation: LogIC50” value was -10.1. In addition, the “concentration for full inhibition” value with human VEGF-A [1] is 0.25 nM. Further, in the experiment with human VEGF-A [6], the “Src phosphorylation (Y419): IC50” value came out at 0.426 nM and the “Src phosphorylation (Y419): LogIC50” value is -9.03. Further, in the experiment with human VEGF-A [7], the “p38-MAPK phosphorylation (T180/Y182): IC50” value was determined as 0.472 nM and the “p38-MAPK phosphorylation (T180/Y182): LogIC50” value was -9.33. Also, in the experiment with human VEGF-A [8], the “ERK1/2 phosphorylation: IC50” value is 0.415 nM and the “ERK1/2 phosphorylation: LogIC50” value is -9.38. In the experiment with human TrkB receptor [9], the “TrkB-phosphorylation efficacy (AlphaLISA counts)” value came out at 5100 AlphaLISA counts; the “TrkB-phosphorylation efficacy relative to parental clone without CC bridge (%)” value was determined as 121%; the “TrkB-phosphorylation potency (EC50, nM)” value was 2.18 nM.

B3: TPP-19988 (bispecific antibody, human IgG1, kappa)
heavy: EVQLVESGGGLVQPGGSLRLSCAASGYDFTHYGMNWVRQAPGKGLEWVGWINTYTGEPTYAADFKRRFTFSLDTSKSTAYLQMNSLRAEDTAVYYCAKYPYYYGTSHWYFDVWGQGTLVTVSSASTKGPSVFPLAPSSKSTSGGTAALGCLVKDYFPEPVTVSWNSGALTSGVHTFPAVLQSSGLYSLSSVVTVPSSSLGTQTYICNVNHKPSNTKVDKRV[in this place human IgG1 Fc with changes]GGGGSGGGGSDIQMTQSPSSLSASVGDRVTITCRTSENVYSNLAWYQQKPGKAPKLLIYAASNLQSGVPSRFSGSGSGTDYTFTISSLQPEDIATYYCQHFWGSPFTFGQGTKLEIKGGSEGKSSGSGSESKSTGGSQVQLVQSGAEVKKPGASVKVSCKASGYTFTNYDIIWVRQAPGQGLEWMGYINPYNDGTKYNEKFKGRVTMTRDTSTSTVYMELSSLRSEDTAVYYCARLLKYRRFRYYAIDYWGQGTTVTVSS
light: B1 light
On to B3, for which, in the experiment with human TrkB receptor [10], the “EC50 (pERK)” value worked out at 2.05 nM and the “EC50 (pTrkB)” value amounted to 7.83 nM.

B4: TPP-14941 (bispecific antibody, human IgG1, kappa)
heavy: EVQLVESGGGLVQPGGSLRLSCAASGYDFTHYGMNWVRQAPGKGLEWVGWINTYTGEPTYAADFKRRFTFSLDTSKSTAYLQMNSLRAEDTAVYYCAKYPYYYGTSHWYFDVWGQGTLVTVSSASTKGPSVFPLAPSSKSTSGGTAALGCLVKDYFPEPVTVSWNSGALTSGVHTFPAVLQSSGLYSLSSVVTVPSSSLGTQTYICNVNHKPSNTKVDKRV[in this place human IgG1 Fc with changes]GGSEGKSSGSGSESKSTGGSDIQMTQSPSSLSASVGDRVTITCRTSENVYSNLAWYQQKPGKAPKLLIYAASNLQSGVPSRFSGSGSGTDYTFTISSLQPEDIATYYCQHFWGSPFTFGQGTKLEIKGGSEGKSSGSGSESKSTGGSQVQLVQSGAEVKKPGASVKVSCKASGYTFTNYDIIWVRQAPGQGLEWMGYINPYNDGTKYNEKFKGRVTMTRDTSTSTVYMELSSLRSEDTAVYYCARLLKYRRFRYYAIDYWGQGTTVTVSS
light: B1 light
As for B4, in the experiment with human VEGF-A [1], the “concentration for full inhibition” value is 0.25 nM and the “fold IC50 against Ranibizumab scFv molecules or TPP-11736” value worked out at 10 fold. In the experiment with human VEGF-A [3], the “Bottom plateau (ERK1/2 phosphorylation, counts)” value was determined as 1150 counts; the “Bottom plateau (Src phosphorylation, counts)” value is 4370 counts; the “IC50 (ERK1/2 phosphorylation)” value is 0.43 nM; the “IC50 (Src phosphorylation)” value is 0.393 nM. Also, in the experiment with human VEGF-A [4], the “Bottom plateau (ERK1/2 phosphorylation, counts)” value was 1150 counts; the “Bottom plateau (Src phosphorylation, counts)” value amounted to 4370 counts; the “IC50 (ERK1/2 phosphorylation)” value turned out to be 0.43 nM; the “IC50 (Src phosphorylation)” value worked out at 0.393 nM. Moreover, in the experiment with human TrkB receptor [10], the “EC50 (pERK)” value was determined as 1.29 nM and the “EC50 (pTrkB)” value worked out at 6.28 nM.

B5: TPP-19989 (bispecific antibody, human IgG1, kappa)
heavy: EVQLVESGGGLVQPGGSLRLSCAASGYDFTHYGMNWVRQAPGKGLEWVGWINTYTGEPTYAADFKRRFTFSLDTSKSTAYLQMNSLRAEDTAVYYCAKYPYYYGTSHWYFDVWGQGTLVTVSSASTKGPSVFPLAPSSKSTSGGTAALGCLVKDYFPEPVTVSWNSGALTSGVHTFPAVLQSSGLYSLSSVVTVPSSSLGTQTYICNVNHKPSNTKVDKRV[in this place human IgG1 Fc with changes]GGGGSGGGGSGGGGSGGGGSDIQMTQSPSSLSASVGDRVTITCRTSENVYSNLAWYQQKPGKAPKLLIYAASNLQSGVPSRFSGSGSGTDYTFTISSLQPEDIATYYCQHFWGSPFTFGQGTKLEIKGGSEGKSSGSGSESKSTGGSQVQLVQSGAEVKKPGASVKVSCKASGYTFTNYDIIWVRQAPGQGLEWMGYINPYNDGTKYNEKFKGRVTMTRDTSTSTVYMELSSLRSEDTAVYYCARLLKYRRFRYYAIDYWGQGTTVTVSS
light: B1 light
Regarding B5, in the experiment with human TrkB receptor [10], the “EC50 (pERK)” value turned out to be 1.77 nM and the “EC50 (pTrkB)” value turned out to be 7.37 nM.

These data come from patent publication US20250051460A1 (Boehringer Ingelheim, published 2025).
